This is one part of the list. The full chains were built here from the parent and the listed change. Inactive controls read about 0.05.
B1: TEV protease; numbered along this chain (parent)
chain: MGESLFKGPRDYNPISSSICHLTNESDGHTTSLYGIGFGPFIITNKHLFRRNNGTLVVQSLHGVFKVKDTTTLQQHLVDGRDMIIIRMPKDFPPFPQKLKFREPQREERICLVTTNFQTKSMSSMVSDTSCTFPSGDGIFWKHWIQTKDGQCGSPLVSTRDGFIVGIHSASNFTNTNNYFTSVPKNFMELLTNQEAQQWVSGWRLNADSVLWGGHKVFMVKPEEPFQPVKEATQL

Variants of: B1
Experiment: raw area under fraction-flipped curve 0-4 h after induction (AUC4h, not background-subtracted), DNA-recorder readout of cleavage of the substrate (dimensionless); higher = more cleavage of the substrate by the protease variant
Conditions: temperature: 34 °C; time window: 0-4 h after rhamnose induction
Protocol: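 In vivo DNA recorder in E. coli TOP10(DE3) ΔrhaA at 34 °C. Each TEVp single-site mutant (parent TEVp 0) is paired with a single-site variant of the 7-mer TEVs (canonical ENLYFQ|S). The substrate sits between flexible linkers in a Bxb1-sfGFP-TEVs-SsrA fusion, so cleavage stabilises Bxb1 and speeds flipping of a recombination array, read by NGS. The value is the raw area under the fraction-flipped curve over 0-4 h after rhamnose induction (AUC4h), with ≥20 reads per time point. It is not background-subtracted; inactive controls average about 0.047.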
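Note: Bxb1 expression induced with 0.2% (w/v) L-rhamnose at OD600 near 0.5, cultures sampled hourly, flipped fraction per protease–substrate barcode pair counted by paired-end Illumina sequencing.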

| Variant | area with substrate ENLYFAS | area with substrate ENLYFCS | area with substrate ENLYFDS | area with substrate ENLYFES | area with substrate ENLYFFS | area with substrate ENLYFGS | area with substrate ENLYFIS | area with substrate ENLYFKS | area with substrate ENLYFLS | area with substrate ENLYFMS | area with substrate ENLYFNS | area with substrate ENLYFPS | area with substrate ENLYFSS | area with substrate ENLYFTS | area with substrate ENLYFVS | area with substrate ENLYFWS | area with substrate ENLYFYS | area with substrate ENLYFHS | area with substrate ENLYFRS |
| --- | --- | --- | --- | --- | --- | --- | --- | --- | --- | --- | --- | --- | --- | --- | --- | --- | --- | --- | --- |
| T71V | 0.0641 | 0.0576 | 0.06 | 0.0579 | 0.0521 | 0.0548 | 0.0533 | 0.0562 | 0.0631 | 0.0601 | 0.0486 | 0.0403 | 0.0504 | 0.0533 | 0.0614 | 0.0521 |  |  |  |
| I85Y | 0.0527 | 0.0616 | 0.0603 | 0.0715 |  |  | 0.0506 | 0.0669 |  |  | 0.0517 | 0.0441 |  | 0.0602 |  | 0.0646 | 0.0446 |  |  |
| N45P | 0.0582 | 0.049 | 0.053 | 0.0628 |  |  | 0.0609 |  | 0.0578 | 0.0604 | 0.0684 | 0.0583 | 0.0553 |  |  | 0.09 |  |  |  |
| N45E | 0.052 | 0.0623 |  |  | 0.06 |  | 0.0568 | 0.0581 | 0.0502 | 0.0637 |  | 0.0528 | 0.0526 | 0.0594 |  | 0.0684 |  | 0.0549 | 0.06 |
| Q75W | 0.0569 |  |  | 0.055 | 0.0578 |  | 0.057 | 0.0697 |  | 0.0435 | 0.0535 | 0.0721 | 0.0663 |  | 0.0508 | 0.0541 |  | 0.0564 | 0.0551 |
| D69S | 0.0622 | 0.0542 | 0.0544 | 0.0667 | 0.0685 |  | 0.0513 | 0.0574 |  | 0.0581 | 0.0675 | 0.0611 |  | 0.0551 | 0.0423 | 0.0589 | 0.0469 |  |  |
| G54A | 0.0595 | 0.0596 |  | 0.0669 | 0.0819 |  | 0.0558 | 0.066 | 0.0545 |  | 0.0611 | 0.0658 |  | 0.0554 | 0.0593 | 0.0585 | 0.0533 | 0.0664 | 0.0736 |
| G54C | 0.0513 | 0.0649 | 0.0481 | 0.0649 | 0.071 | 0.0664 | 0.0556 | 0.0561 | 0.0598 | 0.0579 |  | 0.0607 | 0.0496 | 0.0619 | 0.0569 | 0.0548 | 0.0377 | 0.0607 | 0.0448 |
| G54M | 0.0512 | 0.0509 | 0.0523 | 0.0569 | 0.0647 | 0.064 | 0.0577 | 0.0655 |  | 0.0512 | 0.0669 | 0.0596 | 0.0566 | 0.062 | 0.0543 | 0.0524 | 0.064 | 0.0527 | 0.0772 |
| G54W | 0.064 |  | 0.0513 | 0.0536 | 0.0585 | 0.0663 | 0.0549 | 0.0602 | 0.0584 |  |  | 0.0486 | 0.0425 | 0.0568 | 0.0403 | 0.0567 | 0.0548 | 0.054 |  |
| F65N | 0.032 | 0.0559 | 0.0667 | 0.0619 | 0.0825 |  | 0.0397 | 0.0508 |  | 0.0585 | 0.0615 | 0.0509 |  | 0.0439 | 0.0339 | 0.0476 | 0.0568 | 0.0461 |  |
| K98N | 0.0678 | 0.0597 | 0.0545 | 0.0473 | 0.0616 | 0.0539 | 0.0572 | 0.066 | 0.0653 | 0.0632 | 0.0578 | 0.0621 |  |  |  |  | 0.0672 | 0.0526 | 0.0716 |
| K98P | 0.0611 | 0.0633 | 0.0562 | 0.059 | 0.061 | 0.0607 | 0.0551 | 0.0622 | 0.0674 | 0.0566 | 0.0684 | 0.0549 | 0.0494 | 0.104 |  | 0.0651 | 0.0563 | 0.0571 |  |
| K98F | 0.0579 |  |  |  |  |  | 0.0615 |  |  |  |  | 0.0673 |  | 0.0561 |  |  |  |  | 0.073 |
| R50C | 0.0699 |  | 0.0709 | 0.0435 | 0.0606 |  | 0.0604 |  |  | 0.0813 |  |  |  | 0.0629 | 0.0659 | 0.0545 | 0.0656 | 0.065 |  |
| K90V | 0.0645 | 0.0511 | 0.0616 |  | 0.0473 | 0.0499 | 0.0586 |  |  | 0.0572 |  | 0.0583 | 0.0617 | 0.0524 | 0.0587 |  | 0.0546 | 0.0539 |  |
| K90G | 0.117 |  | 0.062 | 0.0481 | 0.0613 | 0.0608 | 0.0683 |  | 0.063 | 0.0558 | 0.0678 |  |  | 0.0693 | 0.0617 | 0.0604 |  |  |  |
| V67S | 0.0534 |  | 0.0411 | 0.0541 | 0.0597 |  | 0.0536 | 0.0404 |  | 0.0532 | 0.0589 | 0.0466 |  | 0.0564 | 0.0439 |  |  | 0.0515 | 0.054 |
| V67A | 0.0465 | 0.0523 | 0.0527 | 0.0832 | 0.0672 |  | 0.0588 | 0.0528 |  | 0.0538 | 0.0549 | 0.0499 |  |  | 0.038 | 0.0459 | 0.0512 | 0.0581 | 0.0645 |
| V67W | 0.04 | 0.0554 |  |  | 0.0527 | 0.047 | 0.049 | 0.0515 | 0.0417 | 0.0616 |  | 0.0642 | 0.0584 | 0.0498 | 0.0679 |  | 0.0732 | 0.0681 | 0.0584 |
| K66M | 0.0514 | 0.0633 | 0.0528 | 0.0545 |  |  | 0.0535 | 0.0628 | 0.0697 | 0.0742 | 0.0605 | 0.0606 |  | 0.0668 | 0.0628 |  | 0.0676 |  |  |
| K66D | 0.0674 |  | 0.0601 | 0.0641 |  |  | 0.0609 |  |  | 0.072 | 0.0931 | 0.0639 |  | 0.0582 |  | 0.0551 | 0.0681 |  | 0.0528 |
| T44I | 0.0711 |  |  | 0.0657 | 0.0616 |  | 0.0629 | 0.0641 | 0.0313 | 0.0565 |  | 0.0498 |  | 0.0428 |  | 0.0567 |  | 0.0659 | 0.0886 |
| Q97A | 0.0641 | 0.0692 | 0.0603 | 0.0787 | 0.0773 | 0.0633 | 0.0599 |  | 0.0711 | 0.0694 |  | 0.0741 |  | 0.0491 | 0.0055 | 0.0655 | 0.0574 |  |  |
| F95A | 0.0607 |  |  |  |  |  | 0.043 |  | 0.0576 | 0.0638 |  | 0.0556 | 0.0639 |  |  | 0.0543 | 0.0773 | 0.0591 | 0.0469 |
| N52Q | 0.0589 |  | 0.0691 | 0.0557 | 0.0568 | 0.0671 | 0.0533 |  |  | 0.0644 | 0.0576 | 0.0561 | 0.0282 | 0.0495 |  |  |  | 0.0595 | 0.0597 |
